Source: ChEMBL document CHEMBL1201862, “PubChem BioAssay data set” (2004)
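Method: 48-hour compound exposure of cells in 96-well plates, five concentrations, linear interpolation of endpoints. Abbreviation: GI50, concentration required for 50% inhibition of growth.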 The source made the active and inactive calls. Cut-off read from the data, not from the text of the source: active = GI50 up to about 1.1 µM and inactive = higher. Numbered stars: 1 amine (or outer) side, 2 acyl side, 3 side chain; on linkers, the order of the positions; unused ones are H or OH. Square brackets hold non-standard residues; d marks the D form. Peptide text beside a SMILES is read from it. X28 = C=CCC(O[*:1])C(=O)[*:2]; NMeV = CN[CH](C(=O)O)C(C)C; NMeA = CN[CH](C)C(=O)O; βAla = NCCC(=O)O

tested on: NCI-H322M; assay: DTP human tumour cell line panel, 48 h

| SMILES | GI50 |
| --- | --- |
| COc1cc(OC)cc(C(=O)NC2=C(Cl)C(=O)c3ccccc3C2=O)c1 | inactive: 7.66 µM |
| Cc1[nH]n(-c2ccc(S(=O)(=O)O)cc2)c(=O)c1/N=N/c1ccccc1 | inactive: > 100 µM |
| CSCC[C@H](NC(=O)[C@H](CC(C)C)NC(=O)[C@H](Cc1c[nH]cn1)NC(=O)CNC(=O)C1N(C(=O)[C@@H](C)NC(=O)[C@H](Cc2c[nH]c3ccccc23)NC(=O)[C@H](CCC(N)=O)NC(=O)[C@@H](N)CC(N)=O)CSC1(C)C)C(N)=O (stereo partly drawn) (HELM PEPTIDE1{N.Q.W.[dA].[CC1(C)SCN([*:1])C1C(=O)[*:2]].G.H.L.M.[am]}$$$$V2.0) | inactive: > 25 µM |
| C=CC[C@@]12CCC(=O)C=C1CCCC2=O | inactive: 91 µM |
| O=C(/C(=N\Nc1ccc([N+](=O)[O-])cc1[N+](=O)[O-])NC12CC3CC(CC(C3)C1)C2)C(Br)C(=O)c1ccccc1 (stereo not drawn) | inactive: 5.04 µM |
| O=C1/C(=C/C=C/c2ccccc2)N=C(c2ccccc2)N1C1Nc2cc3c(cc2S1)NC(N1C(=O)/C(=C/C=C/c2ccccc2)N=C1c1ccccc1)S3 (stereo not drawn) | inactive: 73.5 µM |
| O=C1C=C(Br)c2c(Br)sc(Br)c21 | inactive: 20.7 µM |
| CCC1C[N+]23CCc4c([nH]c5ccccc45)C2CC1CC3 (stereo not drawn) | inactive: > 100 µM |
| COC(=O)CC1(O)C(C=C(C)C)C(C(=O)OC)C(=O)C(C(=O)OC)C1C(=O)OC (stereo not drawn) | inactive: > 100 µM |
| COC(=O)[C@@H]1C=C[C@H](OC2OC(COC(C)=O)C(OC(C)=O)C(OC(C)=O)C2OC(C)=O)n2c(=O)n(-c3ccccc3)c(=O)n21 (stereo partly drawn) | inactive: 15.2 µM |
| COc1ccc(OC)c(/C=C2/C(=O)N/C(=N\C(C)=O)N2C)c1 | inactive: > 100 µM |
| CC1=C(C(=O)CC(=O)C(=O)Nc2cccc(Cl)c2C)Sc2ccccc2N1 | inactive: > 100 µM |
| C=CCc1oc(C)nc1CCCC | inactive: > 100 µM |
| CC1C2Cc3ccc(O)cc3C1(C)CCN2C (stereo not drawn) | inactive: > 100 µM |
| c1ccc2cc(-c3cc(-c4cc(-c5ccc6ccccc6c5)on4)no3)ccc2c1 | inactive: > 100 µM |
| COS(=O)CCOC(=O)c1ccccc1SSc1ccccc1C(=O)OCCS(=O)OC (stereo not drawn) | inactive: > 100 µM |
| COc1ccc2nc(NC(=O)C(=O)C(C#N)c3ccc(CC#N)cc3)sc2c1 (stereo not drawn) | inactive: > 100 µM |
| CO[C@H]1O[C@@H]2CO[C@@H](c3ccccc3)O[C@H]2[C@@H]2CC=CCC[C@]12O | inactive: > 100 µM |
| COc1ccc2nc(N/N=C/c3ccc(C)s3)cc(C)c2c1 | inactive: 12.5 µM |
| CN1CCN(CCSC2Cc3cc(Cl)ccc3Sc3ccccc32)CC1 (stereo not drawn) | inactive: 11 µM |
| COc1cc2c(cc1OC)C1=Cc3ccc(OC)c(OC)c3C(C#N)N1CC2 (stereo not drawn) | inactive: 75.5 µM |

| SMILES | GI50 |
| --- | --- |
| N#Cc1sc2c(c1OC(=O)c1ccco1)c(=O)n(-c1ccccc1)c(=S)n2-c1ccccc1 | inactive: 97.5 µM |
| CCCCCCCCCCCCNC1(C)CNCCCNCCNCCCNC1 | inactive: 1.7 µM |
| O=C1c2cc3c(cc2CC12Cc1ccccc1C2)CCC3 | inactive: 18.2 µM |
| O=C1C2C3SC(c4cc5ccccc5cc43)C2C(=O)N1c1ccccc1 (stereo not drawn) | inactive: > 100 µM |
| Nc1nc(Cl)cc(NCC2(CO)CCC(CCc3ccccc3)C2)n1 (stereo not drawn) | inactive: 11.9 µM |
| COC(=O)Cc1cccc2c1CCC2=O | inactive: > 100 µM |
| C=CC1(CC)/C(=N\O)C(CC)(CC)C(=O)N1O (stereo not drawn) | inactive: > 100 µM |
| CN(C)c1cccc2c(S(=O)(=O)NCCCNCCN)cccc12 | inactive: 89.3 µM |
| COc1cc(C2c3cc4c(cc3[C@@H](Nc3ccc(N(C)C)cc3)[C@H]3COC(=O)C23)OCO4)cc(OC)c1O (stereo partly drawn) | inactive: 5.96 µM |
| Cc1ccc(S(=O)(=O)N2C3C=CC(C3)[C@@H]2C(Cl)(Cl)Cl)cc1 (stereo partly drawn) | inactive: 22.8 µM |
| Cc1c2c(n(CC(c3ccccc3)c3ccccc3)c1C)NN=C(C#N)S2(=O)=O | inactive: > 100 µM |
| Cc1cc(O)c2c(c1)C[C@@H](O)C1=C2C(=O)c2c(O)ccc(OC3CC(O)C(OC4CC(OC5CCC(OC6CC(O)C(OC7CC(OC8CCC(O)C(C)O8)C(O)C(C)O7)C(C)O6)C(C)O5)C(O)C(C)O4)C(C)O3)c2C1=O (stereo partly drawn) | active: 0.192 µM |
| COc1ccc(/C=C2\CCC(CN(C)C)C2=O)cc1OC (stereo not drawn) | inactive: 17.7 µM |
| Cc1ccc(C(=O)N/N=C(\N=N\c2ccc(C(=O)O)cc2)c2ccc(N(CCC#N)CCC#N)cc2C)cc1 | inactive: > 100 µM |
| CN1C(=O)[C@@H]2[C@@H]3c4ccccc4N(S(=O)(=O)C(F)(F)F)[C@@H]3c3[nH]c4ccccc4c3[C@@H]2C1=O | inactive: 77.6 µM |
| COc1ccc(/C=C(\NC(=O)c2ccccc2)c2nc3ccccc3[nH]2)cc1OC | inactive: > 100 µM |
| CC[C@@]1(CCC(=O)NCCc2c[nH]c3ccccc23)CCC(=O)N2CCc3c([nH]c4ccccc34)[C@H]21 | inactive: 33.7 µM |
| CCOC(=O)C1C(=O)CC1(C)C (stereo not drawn) | inactive: > 10 µM |
| CC1(C)C(=O)N(O)C(C)(C)N1N=O | inactive: > 10 µM |
| Cc1cc(S(=O)(=O)Nc2nc3ccccc3c(=O)n2N)c(S)cc1Cl | inactive: 37.5 µM |
| COc1ccc2nccc(SCC(=O)O)c2c1 | inactive: > 100 µM |

| SMILES | GI50 |
| --- | --- |
| Cn1c(=O)c2c(nc3[nH]c(=O)c(Br)cn32)n(C)c1=O | inactive: > 100 µM |
| Cc1nc2ccc(NCCN(C)C)c3c(=O)c4cc(O)ccc4n1c23 | active: 0.478 µM |
| CC(CCOc1ccc2ccc(=O)oc2c1)C1=CC(=O)C(C)(C)O1 (stereo not drawn) | inactive: 2.86 µM |
| COc1ccc(C2c3cc4c(cc3OC(N3CCOCC3)C2C)OCO4)cc1OC (stereo not drawn) | inactive: 11.6 µM |
| CCN1CN(c2ccccc2)C2(CCN(CC(CC3OCCO3)c3ccc(F)cc3)CC2)C1=O (stereo not drawn) | inactive: 3.74 µM |
| CC(=O)O[C@H]1C(=O)[C@@]2(C)[C@H]([C@H](OC(=O)c3cccc(C(F)(F)F)c3)[C@]3(O)C[C@H](OC(=O)[C@H](O)[C@@H](NC(=O)c4ccccc4)c4ccccc4)C(C)=C1C3(C)C)[C@]1(OC(C)=O)CO[C@@H]1C[C@@H]2O | active: 0.00617 µM |
| Cc1cs/c(=N/c2ccccc2)n1CCC(O)(P(=O)(O)O)P(=O)(O)O | inactive: > 100 µM |
| O=C1c2cccc([N+](=O)[O-])c2C(=O)N1c1ncn[nH]1 | inactive: > 100 µM |
| O=C(Cc1ccccc1)N/N=C(\C1=Nc2ccc([N+](=O)[O-])cc2NC1O)C(O)c1ccc([N+](=O)[O-])cc1 (stereo not drawn) | inactive: > 100 µM |
| N=c1oc2ccccc2cc1C(=O)Nc1ccccn1 | inactive: 50.1 µM |
| CC(=O)O[C@H]1C(=O)[C@@]2(C)[C@H]([C@H](OC(=O)c3ccccc3)[C@]3(O)C[C@H](OC(=O)[C@H](O)[C@@H](NC(=O)c4ccccc4)c4ccccc4C)C(C)=C1C3(C)C)[C@]1(OC(C)=O)CO[C@@H]1C[C@@H]2O | inactive: 1.32 µM |
| O=C1C(Nc2ccc(S(=O)(=O)Nc3cnc4ccccc4n3)cc2)=C/C(=N\c2ccc(S(=O)(=O)Nc3cnc4ccccc4n3)cc2)c2ccccc21 | inactive: 17.5 µM |
| O=Cc1cn(S(=O)(=O)c2ccccc2)c2ccccc12 | inactive: 59.2 µM |
| O=C1NC(=O)C(c2c[nH]c3cc(Br)ccc23)=C1c1cnc[nH]1 | inactive: 35.6 µM |
| COc1cc(C=O)ccc1O [VANILLIN] | inactive: > 100 µM |
| CC1OC(n2ccc3ccc([N+](=O)[O-])cc32)C(O)C(O)C1O (stereo not drawn) | inactive: > 100 µM |
| Cc1ccc(C2=Nc3c(c(C)nn3-c3ccccc3)N=C(C(=O)O)C2)cc1 | inactive: > 10 µM |
| N#CC(C(=O)CCC(=O)C(C#N)c1ccccc1)c1ccccc1 (stereo not drawn) | inactive: > 100 µM |
| CN(C)c1ccc(C2C(Cl)C(=O)N2NC(=O)c2c(Cl)c(Cl)c(Cl)c(Cl)c2-c2nc3ccccc3[nH]2)cc1 (stereo not drawn) | inactive: 30.8 µM |
| O=C(Nc1ccc([N+](=O)[O-])cc1Cl)c1cccc([N+](=O)[O-])c1O | inactive: 2.35 µM |
| COC(OC)C1OCC(n2cc(F)c(=O)[nH]c2=O)C1O (stereo not drawn) | inactive: > 100 µM |

| SMILES | GI50 |
| --- | --- |
| COc1cc(N(C)C)c(OC)cc1/C=C\c1ccnc2ccccc12 | active: 0.889 µM |
| COC(=O)c1c(O)ccc2c1c1c(n2Cc2ccccc2OC)C(=O)c2ccccc2C1 | inactive: > 100 µM |
| c1ccc2c(c1)Sc1nccc3ccnc-2c13 | inactive: 44.6 µM |
| CSC1(SC2=NCCN2)SC2(NCCN2)S1 | inactive: 18.3 µM |
| Nc1nncs1 | inactive: 2790 µM |
| C=CCC1OC(=O)CCNC(=O)C(C)N(C)C(=O)C(C(C)C)N(C)C(=O)C(C(C)CC)NC(=O)C2CCCN2C1=O (stereo not drawn) (cyclo([X28]PI[NMeV][NMeA][βAla]); configuration not given here) | inactive: 23.7 µM |
| O=C1OC(c2ccccc2)=N/C1=C\c1cccc(F)c1 | inactive: > 100 µM |
| CCCCCCCCCCCCCCCCc1c(O)nc(NN)nc1C(=O)OC | inactive: > 50 µM |
| CN(C1=NCCO1)c1cccc2c1CCCC2 | inactive: 9.71 µM |
| Nc1ncnc2c1ncn2[C@@H]1O[C@H](COC(c2ccccc2)(c2ccccc2)c2ccccc2)[C@@H](OC(=S)Oc2ccccc2)[C@@H]1F | inactive: 16 µM |
| O=C1CSC2(CC(/C=C/c3cccc(Br)c3)=NN2c2cccc(S(=O)(=O)O)c2)N1c1nc2ccccc2s1 (stereo not drawn) | inactive: > 100 µM |
| CCCc1nc(NC#N)nc(C(=O)Nc2ccccc2)c1CC | inactive: > 100 µM |
| CCN(CC)c1ccc2c(c1)Nc1cc(=C(C#N)C#N)c3ccccc3c1=N2 | inactive: > 100 µM |
| C1CCCCc2nc3c(nc2CCC1)c1nc2c(nc1c1nc4c(nc31)CCCCCCCC4)CCCCCCCC2 | inactive: > 100 µM |
| COc1ccc(/C(=N/O)C(c2ccc(OC)cc2)C2C(=O)Oc3ccccc32)cc1 (stereo not drawn) | inactive: > 100 µM |
| COc1ccc(/N=N/C(=N/NC(=O)c2ccccc2)c2ccc(N(CCC#N)CCC#N)cc2C)cc1 | inactive: 60.4 µM |
| Cc1cc(NS(=O)(=O)c2ccc(Nc3c4ccccc4nc4c(C(=O)NCCN(C)C)ccc(Cl)c34)cc2)no1 | inactive: 4.66 µM |
| COC(=O)[C@H]1COC(=S)N1C(=O)[C@@H](C)[C@H](O)C(C)C | inactive: > 100 µM |
| NC1=NS(=O)(=O)Nc2[nH]c(-c3ccccc3)nc21 | inactive: > 100 µM |
| COc1cc(OCc2ccccc2)c2c(CCC(=O)O)cc(=O)oc2c1.COc1cc(OCc2ccccc2)cc2oc(=O)cc(CCC(=O)O)c12 | inactive: 35 µM |
